From article PMC6776900, “PPM1G forms a PPP‐type phosphatase holoenzyme with B56δ that maintains adherens junction integrity” (EMBO Reports, 2019)
Residue numbers refer to the chain shown, from its start. These are yes or no findings as the source states them, for the method shown. In cells and extracts the contact can be indirect. Some results given as binding are weak or reduced against the parent protein; the word gives no strength.

Protein sequences, listed by entry. Tags and fused reporters are not part of them.
UniProt P35221: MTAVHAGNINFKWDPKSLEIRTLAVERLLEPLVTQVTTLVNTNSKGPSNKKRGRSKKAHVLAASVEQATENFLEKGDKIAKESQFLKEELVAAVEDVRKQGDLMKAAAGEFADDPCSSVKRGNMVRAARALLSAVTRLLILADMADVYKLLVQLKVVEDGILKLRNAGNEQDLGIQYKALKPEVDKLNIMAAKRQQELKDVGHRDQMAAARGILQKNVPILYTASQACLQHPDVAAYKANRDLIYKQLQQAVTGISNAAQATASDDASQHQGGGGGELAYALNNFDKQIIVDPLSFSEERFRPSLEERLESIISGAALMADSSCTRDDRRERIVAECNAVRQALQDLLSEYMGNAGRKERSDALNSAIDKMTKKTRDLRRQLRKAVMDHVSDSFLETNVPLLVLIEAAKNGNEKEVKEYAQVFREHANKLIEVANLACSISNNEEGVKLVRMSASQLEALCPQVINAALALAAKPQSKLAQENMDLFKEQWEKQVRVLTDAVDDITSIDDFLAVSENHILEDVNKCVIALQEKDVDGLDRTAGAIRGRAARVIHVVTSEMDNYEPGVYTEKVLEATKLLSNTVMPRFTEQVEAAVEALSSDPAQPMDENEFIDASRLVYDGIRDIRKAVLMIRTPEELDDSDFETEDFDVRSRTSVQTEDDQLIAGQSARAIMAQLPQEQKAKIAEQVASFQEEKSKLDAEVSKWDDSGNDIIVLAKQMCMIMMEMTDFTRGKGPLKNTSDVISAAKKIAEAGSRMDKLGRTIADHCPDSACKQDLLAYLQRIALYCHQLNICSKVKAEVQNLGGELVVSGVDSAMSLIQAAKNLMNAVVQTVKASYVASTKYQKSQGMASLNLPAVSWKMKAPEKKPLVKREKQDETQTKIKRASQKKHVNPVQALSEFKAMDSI

Experiments:
SFB-PPM1G G188W (human) = biological target: T1, SFB-PPM1G G188W (human) (UniProt O15355); assay: pull-down; SFB-tagged bait expressed in cells (HEK293T/293T where named), lysate in NETN buffer, streptavidin Sepharose beads 1 h at 4°C, endogenous prey detected by Western blot; Fig 3B/3L control shRNA cells; Fig 4C control, PPM1G and B56δ shRNA cells
T1 sequence: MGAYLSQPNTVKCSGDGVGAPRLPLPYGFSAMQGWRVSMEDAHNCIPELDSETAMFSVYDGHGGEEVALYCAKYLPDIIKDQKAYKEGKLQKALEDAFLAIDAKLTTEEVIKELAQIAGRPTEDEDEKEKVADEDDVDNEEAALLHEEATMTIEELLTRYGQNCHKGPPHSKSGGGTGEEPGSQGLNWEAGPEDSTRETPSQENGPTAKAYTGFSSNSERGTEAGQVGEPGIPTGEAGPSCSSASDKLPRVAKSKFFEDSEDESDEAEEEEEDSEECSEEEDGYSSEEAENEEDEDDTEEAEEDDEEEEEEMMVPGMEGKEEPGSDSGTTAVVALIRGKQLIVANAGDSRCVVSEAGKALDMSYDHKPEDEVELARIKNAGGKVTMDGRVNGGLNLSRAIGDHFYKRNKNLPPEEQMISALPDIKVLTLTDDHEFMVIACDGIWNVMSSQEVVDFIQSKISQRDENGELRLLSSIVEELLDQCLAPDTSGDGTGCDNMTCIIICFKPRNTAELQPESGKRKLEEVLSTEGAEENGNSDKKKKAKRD

SFB-PPM1G D133V (human) = biological target: T2, SFB-PPM1G D133V (human) (UniProt O15355); assay: as above
T2 sequence: T1 sequence with D133V, W188G

[1] = biological target: T3, SFB-PPM1G full length (FL) (human) (UniProt O15355); assay: pull-down; B56δ shRNA (B56δ-depleted) cells transfected with SFB-PPM1G or SFB-PPM1G ΔNLS; streptavidin beads; endogenous α-catenin by Western blot
T3 sequence: T1 sequence with W188G

SFB-PPM1G ΔNLS (human) = biological target: T4, SFB-PPM1G ΔNLS (human) (UniProt O15355); assay: as above
T4 sequence: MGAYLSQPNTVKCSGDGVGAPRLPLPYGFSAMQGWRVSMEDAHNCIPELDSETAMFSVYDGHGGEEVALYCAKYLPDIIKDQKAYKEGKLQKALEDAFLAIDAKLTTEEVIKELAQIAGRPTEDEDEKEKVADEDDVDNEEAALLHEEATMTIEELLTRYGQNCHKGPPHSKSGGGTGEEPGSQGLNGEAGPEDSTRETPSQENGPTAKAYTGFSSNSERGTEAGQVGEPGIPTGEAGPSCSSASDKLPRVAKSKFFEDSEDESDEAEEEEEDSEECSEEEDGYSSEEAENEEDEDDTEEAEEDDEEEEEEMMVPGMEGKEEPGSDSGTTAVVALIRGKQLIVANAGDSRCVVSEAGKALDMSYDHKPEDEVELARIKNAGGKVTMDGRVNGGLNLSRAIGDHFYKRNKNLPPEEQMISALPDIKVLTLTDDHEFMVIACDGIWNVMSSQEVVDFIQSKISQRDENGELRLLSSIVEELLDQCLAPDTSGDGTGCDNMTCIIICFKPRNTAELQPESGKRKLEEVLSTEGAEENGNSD

- binding (SFB-PPM1G G188W (human)): binds
- binding (SFB-PPM1G D133V (human)): binds
- binding (SFB-PPM1G ΔNLS (human)): binds
Substance: endogenous α-catenin (from UniProt P35221 1-906)
- binding [1]: no binding (condition: B56δ-depleted cells (shRNA))
